Reference: PubChem BioAssay AID686978 (National Center for Advancing Translational Sciences (NCATS), 2013)
Screen size: about 420,000 compounds; about 64,000 (15%) were called active. This list was built around the results that the source calls inconclusive (neither active nor inactive); the mix of calls is not that of the screen. Calls come from the whole dose curve; as a rule, active = well fitted inhibition curve with a large enough effect; inconclusive = small, poorly fitted or top-dose-only effect; inactive = flat fitted curve, though single readings scatter. Potencies of inconclusive entries are left out as doubtful fits.

Experiment: qHTS for Inhibitors of human tyrosyl-DNA phosphodiesterase 1 (TDP1): qHTS in cells in absence of CPT; note: nearly all actives have a fitted effect of over 55% in size
Details: DT40 Tdp1-/- hTDP1 cells, no CPT, ATP luminescence, 48 h; activity change, negative = growth inhibition: at 46.2 µM (top of the series) unless noted
How it was run: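 Cells were dispensed at 400 per well, compounds added by pin tool, plates incubated ≥48 hr at 37 °C, then CellTiter-Glo added for 30 min at room temperature before luminescence reading. Line: DT40 Tdp1-/- complemented with hTDP1; camptothecin omitted.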
% is set by controls: 0 for no effect and ±100 for the full control effect; potency is the fitted concentration of half-maximal effect; tags give direction and shape of the fitted curve.

Compound | Potency | activity change, negative = growth inhibition
O=C(NCO)c1cccnc1 | inactive | 
Cc1ccc(CNc2ncnc3cc(Cl)ccc23)cc1 | active: 18.4 µM | 
COC(=O)c1cn(C(=O)c2cc(Br)ccc2Cl)c2ccccc12 | inconclusive [inhibitor, single point] | 
O=C(NC(=S)Nc1ccc2c(c1)OCO2)c1ccc(Cl)cc1 | inconclusive [inhibitor, single point] | 
O=C(NCCCN1CCCC1=O)C(=O)Nc1cccc(F)c1 |  | inconclusive: -32% [inhibitor]
COc1cccc(C2=NN(C(=O)c3ccco3)C(c3ccco3)C2)c1 (stereo not drawn) | inconclusive [inhibitor, single point] | 
COc1cc(C(=O)NCC(C)(C)CNC(=O)c2cc(OC)c(OC)c(OC)c2)cc(OC)c1OC | inactive | 
CSc1cccc(NC(=O)CN(c2ccccc2)S(=O)(=O)N(C)C)c1 | active: 29.1 µM | 
O=C(NC(=S)Nc1cccc2[nH]ncc12)c1ccccc1 | inactive | 
COc1ccc(C2C(=O)N(C3CCC(C)CC3)CC(=O)N2CCc2ccccc2)cc1OC (stereo not drawn) | inconclusive [inhibitor, single point] | 
O=C(CC[C@H]1O[C@@H](n2ccc(=O)[nH]c2=O)[C@H](O)[C@@H]1O)N[C@@H](Cc1ccccc1)C(=O)NCC1CCCCC1 | inactive | 
Cc1ccc(-n2nc3c(=O)n(CCCC(=O)NCc4ccccc4Cl)nc(C)c3c2C)cc1 | active: 18.4 µM | 
O=C(Cc1ccc(OCC2CCCCC2)cc1)NO | active: 11.2 µM | 
Cc1n[nH]c(=O)c2c(NC(=O)COC(=O)c3ncc(Cl)c(Cl)c3Cl)oc(C)c12 | inactive | 
Cc1ccc(C(=O)NS(=O)(=O)c2ccccc2)cc1 | inactive | 
CCNc1nc(Cl)nc(NCc2ccccc2)n1 | inactive | 
CN[C@H]1C[C@H]2c3cc(-c4ccccc4)ccc3CCN2C(=O)[C@H]1[C@H](C)O | inconclusive [inhibitor, single point] | 
CCOC(=O)[C@@H]1[C@H]2COc3ccccc3[C@@H]2N2C(=O)N(c3ccc(C)cc3)C(=O)[C@]12C | inactive | 
O=C1CN(C(=O)Cn2ncc(Cl)c(Cl)c2=O)c2ccccc2N1 | active: 8.2 µM | 
COc1ccc(CC(N)c2csc(NC(=O)Nc3ccccc3-c3ccccc3)n2)cc1 (stereo not drawn) | inconclusive [inhibitor, single point] | 
Cc1nn(C)c(C)c1CNC(=O)/C=C/c1ccccc1F |  | inconclusive: -36.4% [inhibitor]
Cc1cc(N2CCCCC2)nc2ccc(NC(=O)c3cccc(F)c3)cc12 | active: 7.31 µM | 
Cn1c(SCC(=O)c2ccccc2)ncc(C(=O)Nc2ccccc2)c1=O | active: 20.6 µM | 
COc1cc2ccccc2cc1C(=O)OCc1nc2ccsc2c(=O)[nH]1 | inconclusive [inhibitor, full curve] | 

Compound | Potency | activity change, negative = growth inhibition
COc1ccc(S(=O)(=O)N(CCc2ccccc2)CC(=O)O)cc1C | inactive | 
O=C(NCc1ccncc1)c1cnn(-c2ncc3c(n2)-c2ccccc2CC3)c1C1CC1 | inactive | 
CCN(CC)CC(=O)NN=C(c1ccccc1)c1ccccc1 | inconclusive [inhibitor, single point] | 
O=C(CSc1nnc(CNC(=O)c2cccs2)o1)c1ccc(Cl)cc1 | inconclusive [inhibitor, single point] | 
Cc1ccc(NC(=O)c2c(-c3ccccc3)noc2C)nc1 |  | inconclusive: -31.9% [inhibitor]
CC(C)C1C(=O)N(Cc2cn(CCC3OCCO3)nn2)CCS(=O)(=O)N1Cc1ccc(-c2ccc(F)cc2Cl)cc1 (stereo not drawn) | active: 20.6 µM | 
O=C(/C=C/[C@H]1O[C@@H](n2cnc3c(NC(=O)c4ccccc4)ncnc32)[C@H](O)[C@@H]1O)NCCCN1CCCC1=O | inactive | 
Cc1ccccc1-c1cccc([C@@H]2C[C@H]3[C@H](CON3C)CN2C(=O)C(C)(C)C)c1 | inconclusive [inhibitor, partial curve, poor fit] | 
Cc1ccc(C(=O)N2CCc3cc(CNC(=O)COc4ccccc4)ccc32)cc1 | active: 11.6 µM | 
O=[N+]([O-])c1ccc2c(c1)CNc1ccccc1O2 | inactive | 
COc1cccc(-c2nn(-c3ccc(C)cc3)cc2C(=O)NCC(c2cccs2)N2CCOCC2)c1 (stereo not drawn) | inconclusive [inhibitor, single point] | 
CN(C)S(=O)(=O)Oc1cccc(C(=O)Nc2ccc([N+](=O)[O-])cc2)c1 | active: 8.2 µM | 
O[C@H]1CN(CC2CCCCC2)[C@@H](c2ccc(Cl)cc2)C[C@@H]1n1cc(-c2ccc(F)cc2)nn1 | active: 20.6 µM | 
Cn1c(=O)c(C(=O)NCC2CCCO2)c(O)c2ccccc21 (stereo not drawn) | inconclusive [inhibitor, single point] | 
NC(=O)C1=C[C@@H](c2ccc(C(F)(F)F)cc2)C[C@@H](OCc2ccc(CO)cc2)O1 | active: 14.6 µM | 
O=S(=O)(c1cccc(C(F)(F)F)c1)n1c(/C=C/c2ccccc2)nc2ccccc21 | active: 10.3 µM | 
COc1ccc(C)cc1NC(=O)NC1CCCCCCC1 | inconclusive [inhibitor, single point] | 
C/C(=N/Oc1nc(C)cc(C)n1)c1ccc(Br)cc1 |  | inconclusive: -30.8% [inhibitor]
O=C(COC(=O)C1CC2CCCC(C1)C2=O)NC(=O)c1ccccc1 (stereo not drawn) | inactive | 
O/N=C/c1cc(Br)ccc1OCc1ccc(F)cc1 | inconclusive [inhibitor, partial curve] | 
CCOc1ccc(Nc2nc3ccccc3n3c(CC)nnc23)cc1 | inconclusive [inhibitor, single point] | 
COc1cc(/C=C2/C=Cc3ccccc32)ccc1N(C)C | inconclusive [inhibitor, single point] | 
CCOC(=O)C1=C(c2ccccc2)NC(SCC(=O)Nc2ccc(C)cc2)=C(C#N)C1c1ccco1 (stereo not drawn) | inconclusive [inhibitor, single point] | 
Cc1onc(-c2ccccc2)c1C(=O)N/N=C/C(Br)=C/c1ccccc1 | active: 9.2 µM | 
